According to publication PMC7819943, “Rice protein-binding microarrays: a tool to detect cis-acting elements near promoter regions in rice”:
Some of the results follow.

Target: T1, OsWOX13 (Oryza sativa, UniProt Q5QMM3 1-267)
T1 sequence: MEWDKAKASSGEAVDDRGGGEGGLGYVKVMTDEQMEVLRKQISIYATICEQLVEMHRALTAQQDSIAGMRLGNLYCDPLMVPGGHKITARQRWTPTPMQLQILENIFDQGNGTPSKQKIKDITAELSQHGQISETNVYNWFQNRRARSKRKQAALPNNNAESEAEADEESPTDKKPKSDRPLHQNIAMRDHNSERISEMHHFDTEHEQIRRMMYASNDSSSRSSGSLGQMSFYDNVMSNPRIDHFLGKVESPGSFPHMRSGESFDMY
Test: protein-binding microarray (RPBM); PBS, 2% BSA, 51.3 ng/ul salmon testes DNA, 50 uM zinc acetate, 200 nM TF, 25 C, 1 h; high values mean tight binding
Details: protein: recombinant; tags: N-terminal polyhistidine and DsRed monomer fusion (pET32a); label: CyDye5-dUTP incorporated in the synthesized complementary strand; 3' TTTTT single-stranded linker to array surface; dsDNA, one strand shown
Outline: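 Binding signal here means per-feature fluorescence intensity in arbitrary units. The values were read on an Axon 4000B scanner after a custom Agilent array, double-stranded by primer extension with Cy5-dUTP, was incubated with 200 nM protein at 25 °C for 1 h in PBS with 2% BSA, salmon testes DNA and 50 µM zinc acetate, then washed. The proteins were transcription factors with an N-terminal polyhistidine tag and DsRed, expressed in E. coli BL21-CodonPlus and purified on Ni–NTA.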

With “ATAATTAATTGCCTCACTAACCTCTGCTTCTTCTTAAGGTCGGAGTCACCTAGTGCAG” as the sequence, how does the binding signal read?
Its binding signal is 40100 fluorescence intensity (a.u.).

With “ACTAATATGGATAGATTGAAACATCAAGAACTAAACTGAGCGGAGTCACCTAGTGCAG” as the sequence, how does the binding signal read?
Its binding signal is 29900 fluorescence intensity (a.u.).

For “ACAATTTGATTGCTTCCTTTCAACATTGTGGTTGGTGATCCGGAGTCACCTAGTGCAG”, which binding signal is on record?
The binding signal was 30500 fluorescence intensity (a.u.).

With “AAAATATTCAATTAAATTAATGAACATCTATATCTGAACCCGGAGTCACCTAGTGCAG” as the sequence, how does the binding signal read?
The binding signal was 16800 fluorescence intensity (a.u.).

“GACGAATCTTTTAAGCCTAATTACGCCATGATTTAGCAATCGGAGTCACCTAGTGCAG” was tested. Which binding signal did it give?
The binding signal was 4130 fluorescence intensity (a.u.).

For “ATAATTAATTAAGAGTATCCAAAGGCAAGACACATATAGTCGGAGTCACCTAGTGCAG”, which binding signal is on record?
The binding signal was 17000 fluorescence intensity (a.u.).

With “ACACTAATAGGTCATGTCCATTTCCATCCCATTTCCATTGCGGAGTCACCTAGTGCAG” as the sequence, how does the binding signal read?
Its binding signal is 7050 fluorescence intensity (a.u.).

For “GCCTAATTAATTCGTCATTAGTAAACATTTACTGTAGCACCGGAGTCACCTAGTGCAG”, which binding signal is on record?
Its binding signal is 35900 fluorescence intensity (a.u.).

“GATGTGATTTAAGCTATTGATGTGCTCGAGAAACTCTTTTCGGAGTCACCTAGTGCAG” was tested. Which binding signal did it give?
The binding signal was 25000 fluorescence intensity (a.u.).

How did the binding signal turn out when “GTCACTAATTTACAAATTTACAAATCAGTCCATTCTCACACGGAGTCACCTAGTGCAG” was run?
Its binding signal is 44100 fluorescence intensity (a.u.).

For “TATATAAATATAATTTATTTTGTTGTGATTTATTTTATCACGGAGTCACCTAGTGCAG”, which binding signal is on record?
Its binding signal is 4940 fluorescence intensity (a.u.).

Which binding signal does the source give for “ACTTTAATAATTCAATTTAGAAGGGAAATACCATCCCTTTCGGAGTCACCTAGTGCAG” here?
The binding signal was 6640 fluorescence intensity (a.u.).

How did the binding signal turn out when “TATATATATATATATATCATACACCGTTTAATTATTATTCCGGAGTCACCTAGTGCAG” was run?
The binding signal was 12400 fluorescence intensity (a.u.).

Which binding signal does the source give for “CTTAGCATTCAATTTCTTCTAAAATTGAATACCACCGATTCGGAGTCACCTAGTGCAG” here?
The binding signal was 9020 fluorescence intensity (a.u.).

Which binding signal does the source give for “GGTGTTACTAGTTAATTAACACGAAACCTAATGCTAATCTCGGAGTCACCTAGTGCAG” here?
The binding signal was 7570 fluorescence intensity (a.u.).

Which binding signal does the source give for “ATACTTAATCAAAGTAACTCGTAAAATGAATATGAAACAGCGGAGTCACCTAGTGCAG” here?
Its binding signal is 4340 fluorescence intensity (a.u.).

With “ATTCAAATTGACAACTCTTTGAATTGATCTGCAGGTTCTCCGGAGTCACCTAGTGCAG” as the sequence, how does the binding signal read?
Its binding signal is 34500 fluorescence intensity (a.u.).

How did the binding signal turn out when “AAGATAAATTGATCAGTGAATGCTGAAATGGCCAAGTTTTCGGAGTCACCTAGTGCAG” was run?
The binding signal was 39200 fluorescence intensity (a.u.).

For “GAGATTAATTAAATCGATAAGCTACCAGAGGTTTAGTTTTCGGAGTCACCTAGTGCAG”, which binding signal is on record?
Its binding signal is 9960 fluorescence intensity (a.u.).

For “CAGTAAATTACGGAACTGCCCCAACCAGTCCCTATAAATACGGAGTCACCTAGTGCAG”, which binding signal is on record?
Its binding signal is 8000 fluorescence intensity (a.u.).

Which binding signal does the source give for “ATTTCGGTCTCATTTCTGTTAGTTCGGTTGGTTTTAATTTCGGAGTCACCTAGTGCAG” here?
Its binding signal is 4290 fluorescence intensity (a.u.).

“GCATAGTGATTGCAGACATCAAGGTCATAGCAGTGGGTTTCGGAGTCACCTAGTGCAG” was tested. Which binding signal did it give?
Its binding signal is 16200 fluorescence intensity (a.u.).

Which binding signal does the source give for “AAACTTAATTAATCATATGTTATTGGTTTTCTCGTTTTACCGGAGTCACCTAGTGCAG” here?
Its binding signal is 18500 fluorescence intensity (a.u.).

With “GATTTTGTCAATCTAAGAGATGTACCACAAGTACTCAAGCCGGAGTCACCTAGTGCAG” as the sequence, how does the binding signal read?
The binding signal was 6210 fluorescence intensity (a.u.).

With “AAGTATTTTACGAACTGTGATTGACAGTTAAAGGATCAAACGGAGTCACCTAGTGCAG” as the sequence, how does the binding signal read?
Its binding signal is 21200 fluorescence intensity (a.u.).

“GTATACATATAGATTGCAATTACGAAAATATAACAAGAGTCGGAGTCACCTAGTGCAG” was tested. Which binding signal did it give?
The binding signal was 20500 fluorescence intensity (a.u.).

Which binding signal does the source give for “GGGCATTATTTTGTCCAAATTGATTCTTAACCATTGGGCACGGAGTCACCTAGTGCAG” here?
Its binding signal is 5160 fluorescence intensity (a.u.).

Which binding signal does the source give for “AATTCTAAACGTTAATTGGCAACTTTCTTGTTTTCCATTACGGAGTCACCTAGTGCAG” here?
The binding signal was 15200 fluorescence intensity (a.u.).

For “AGAATTTATATTAATTATTCATTAATTTACAAGTGAAGTTCGGAGTCACCTAGTGCAG”, which binding signal is on record?
Its binding signal is 21800 fluorescence intensity (a.u.).

“TGAAGACTGGCAAGAATTGATTTATATGTTCTGGGATGTGCGGAGTCACCTAGTGCAG” was tested. Which binding signal did it give?
The binding signal was 17300 fluorescence intensity (a.u.).

Which binding signal does the source give for “TGTATTTAATCAAAATTTAGTCAAATTCAGTTAAATTGTGCGGAGTCACCTAGTGCAG” here?
Its binding signal is 8910 fluorescence intensity (a.u.).

For “TATATTGGTTCTATATATTAATTGACGTTTTGAACAATATCGGAGTCACCTAGTGCAG”, which binding signal is on record?
Its binding signal is 8450 fluorescence intensity (a.u.).

How did the binding signal turn out when “GTGTTAACAATGATTGATTTAAGGTATGGTGGTAGGTGACCGGAGTCACCTAGTGCAG” was run?
Its binding signal is 49400 fluorescence intensity (a.u.).

“CGTCTGGGGTTTGATTGGGATTGAGGCGAATTCGGGCGGTCGGAGTCACCTAGTGCAG” was tested. Which binding signal did it give?
The binding signal was 34000 fluorescence intensity (a.u.).

How did the binding signal turn out when “AGATTTAATTTAATATTTTATTGTTTACCACACAGCTGCTCGGAGTCACCTAGTGCAG” was run?
Its binding signal is 28200 fluorescence intensity (a.u.).

With “ATAAATTGAATCAGCAGTTCAGCACCACATCAAGTGGAATCGGAGTCACCTAGTGCAG” as the sequence, how does the binding signal read?
The binding signal was 28000 fluorescence intensity (a.u.).

“CATTTAATTCATGTGACTTTTGAAATTTGTACCGAAATGCCGGAGTCACCTAGTGCAG” was tested. Which binding signal did it give?
The binding signal was 3520 fluorescence intensity (a.u.).

Which binding signal does the source give for “CCGATACTAGTAATTTGTTAATCGCGTCCGTTAGTCTACGCGGAGTCACCTAGTGCAG” here?
Its binding signal is 7740 fluorescence intensity (a.u.).

How did the binding signal turn out when “ACTAAAACTCGATAATTATTCGGTGTATTATGCGAGCACGCGGAGTCACCTAGTGCAG” was run?
Its binding signal is 11900 fluorescence intensity (a.u.).

“GGATTAATTAGGCTTAATAAATTCATCTCGCAGTTTTCTGCGGAGTCACCTAGTGCAG” was tested. Which binding signal did it give?
Its binding signal is 26200 fluorescence intensity (a.u.).

With “TTAATGACGGATTAATTAGACTTAATAAATTCTTCTCGCACGGAGTCACCTAGTGCAG” as the sequence, how does the binding signal read?
The binding signal was 34500 fluorescence intensity (a.u.).

For “CCCCACTCTAACTCTCGTGTTGATTGCAGCGAATTTAGATCGGAGTCACCTAGTGCAG”, which binding signal is on record?
The binding signal was 5270 fluorescence intensity (a.u.).
